# Test results from ChEMBL document CHEMBL4888484, “Replenishing the malaria drug discovery pipeline: Screening and hit evaluation of the MMV Hit Generation Library 1 (HGL1) against asexual blood stage Plasmodium falciparum ,using a nano luciferase reporter read-out” (2022).
# Among all 150,000 compounds or so, about 540 (0.36%) showed an effect of 50% or more. Some of the results follow.
# Test system: Plasmodium falciparum
# Experiment: Primary screen in NF54 nanoGlo assay, in single point, at 2uM, 72h; a lower Z score goes with more inhibition
# Assay type: functional, Erythrocyte
# Conditions: timepoint 72 hour
Structure (SMILES),% Inhibition [%],Z score
CC(C)c1nnc(C2CCN(C(=O)c3c[nH]c4ccccc34)CC2)o1,11,-1.46
COc1ccc(NC(=O)c2nnc(C3CCN(C(=O)NCc4ccco4)CC3)s2)cc1,-19,1.74
CCNC(=O)[C@@H]1CC[C@](C)(C(=O)NCCc2nnc(N)s2)C1(C)C,-1,0.2
NC(=O)c1ccc(N2CC3CC=CCC3C2)nn1 (configuration not stated),-5,0.68
N#CCN(CC#N)C(=O)c1ccc(Cl)cc1F,0,0.03
c1ccc(-c2noc(Cc3cccc4ccccc34)n2)nc1,-9,1.28
C[C@@H]1[C@H](C(=O)NCCn2ccnn2)CCCN1C(=O)OC(C)(C)C,-15,2.06
CC(C)Cc1nc2c(Br)cc(Br)cn2c1NC1CCCCC1,-16,1.6
Cc1cccc(CN2[C@H](CNS(=O)(=O)c3ccccc3)CN(C)C(=O)[C@@H]2C)c1,-6,0.85
COc1cccc(C(=O)NC[C@H]2Cn3cccc3CN2Cc2ccccc2)c1,1,-0.17
Cc1cc(C(=O)N2Cc3c(C(=O)NC4CC4)nn(C)c3C2)no1,-4,0.52
Cc1nn(CCCNc2cc([C@H]3CCOC3)nc(N)n2)c(C)c1Cl,-5,0.72
COc1ccccc1CCC(=O)N1CC(N2C[C@H](CO)NC2=O)C1,-4,0.44
O=C1CCC2(CCN(C(=O)c3ccccc3F)CC2)CN1CCc1c[nH]cn1,-4,0.66
CCc1nnc(CN(C)Cc2[nH]cc(C)c(=O)c2C)o1,-7,0.68
O=C(O)C1C2C=CC(CC2)C1C(=O)N1CCN(c2ccccc2F)CC1 (configuration not stated),-20,2.31
COc1ccccc1C1(CNC(=O)c2sc(C)nc2C)CCOCC1,-5,0.6
COc1ccc(C)cc1/N=C(\NC[C@H]1CCCO1)NC(=O)c1cccc(C)c1,-15,1.35
COC(=O)c1cc(-c2cnn(C)c2)on1,-32,3.78
Cc1ncc(CO)c(CN2CCOC[C@@H]2CC(=O)NCc2cccnc2)c1O,-4,0.73
CC1C(C)[S+]([O-])CCN1Cc1nc(N)nc(N(C)C)n1 (configuration not stated),11,-2.07
Cc1cnccc1CN(C)C(=O)Cc1ccncc1,5,-0.66

Structure (SMILES),% Inhibition [%],Z score
COCC1(C(=O)N2CCN(c3ccc(F)c(Cl)c3)CC2)CCC1,-25,2.46
Cc1nocc1NC(=O)N1CCN(c2ncnc3sccc23)CC1,-19,2.23
O=C(c1cc(S(=O)(=O)N2CCCC2)c[nH]1)N1CCCCCC1,-13,1.29
CCN(Cc1cn(C)nc1C)C(=O)c1cn2c(n1)C(=O)N(Cc1ccccc1)CC2,-12,1.62
CCCN1CCN(S(C)(=O)=O)c2cc(F)ccc21,-3,0.43
Cc1occc1C(=O)N1CC[C@@]2(CCCN(CC3CCCCC3)C2=O)C1,-8,1.07
O=C(O)C1CCC(C(=O)N2CCC[C@H]2c2cc(F)cc(Br)c2)CC1 (some centres not stated),-29,3.37
O=C(NCCc1ccc2c(c1)OCCO2)c1ccsc1,-17,1.63
CC(=O)NCC(C)(C)c1c(F)cccc1Cl,-3,0.37
O=C(Cn1c(=O)n(Cc2ccccc2F)c(=O)c2sccc21)NC1CCCCC1,-11,1.61
CCc1ccccc1OCCN[C@H](C(N)=O)[C@@H](C)O,-8,1.69
Cc1cc2c3c([nH]c2cc1S(=O)(=O)NCc1ccc(N(C)C)cc1)CC(C)(C)CC3=O,-19,3.75
Cc1ccc(NC(=O)[C@@H]2CNC[C@H](C(=O)NCCn3cccn3)C2)cc1,-4,0.91
CN(C)c1ccccc1NC(=O)C1CCCC1,0,-0.04
CCC(=O)N1CCc2cn(C)c3cccc(c23)C1,-9,1.46
COc1ccc(/C=C/CN2CCN(c3ncc(Cl)cn3)CC2)cc1,17,-2.13
Cc1ccc(OS(=O)(=O)c2c[nH]c(C(=O)N3CCCC3)c2)cc1,-29,3.4
CC(C)C[C@@H](NC(=O)c1c(F)cccc1Cl)C(=O)O,-4,0.58
CCc1ccnc(C(=O)N(Cc2cncs2)Cc2cncs2)c1,-9,1.36
O=C(c1ccc2c3c(cccc13)CC2)[C@H]1CCCN(C(=O)CCc2cccnc2)C1,-8,0.96
O=C(NCc1cccnc1)c1cccc(C(=O)NCc2cccnc2)n1,-9,1.19
CC1(C)CC(NC(=O)NCC2CCCS(=O)(=O)C2)c2ccccc21 (configuration not stated),-4,0.42

Structure (SMILES),% Inhibition [%],Z score
Cc1ccc(N(C)C2CCN(C(=O)[C@H](C)n3cncn3)CC2)nn1,-5,0.72
Nc1c(-c2ccccc2C(F)(F)F)ncnc1N1CCCCC1,-3,0.63
CC(=O)NC1(C)CCC2(C)CC1(C)C(C)=NC2(C)C (configuration not stated),-4,0.59
CCCC(C)CNC1(C)CCCCC1C(=O)OC (configuration not stated),-1,0.08
COC[C@@H]1CC(F)(F)CN1C1CCN(C(=O)c2cncn2C)CC1,-3,0.56
CC[C@H](NC(=O)C1(C#N)CCCC1)C(=O)OC,-8,1.26
Clc1cc(Br)ccc1OCCOCCNCc1ccccc1,-6,0.79
COc1nn(C)cc1NC(=O)NCC[C@H]1CCC(C)(C)CO1,-2,0.29
Cc1n[nH]cc1CNC1CCCCC1C(F)(F)F (configuration not stated),-2,0.41
CCc1cnc(C)nc1N1CCN(C)[C@]2(CCC(=O)N(CC3CC3)CC2)C1,-12,2.33
Cc1ccc(CNC[C@H](O)c2cc(Cl)c3c(c2)OCCO3)nc1,-8,1.22
NC(=O)C1CCCC1NC(=O)c1ccc(OC2CCC2)cc1Cl (configuration not stated),-16,1.9
CCOC(=O)c1c(F)cc(F)c(F)c1N,1,-0.08
O=C(NCc1cncc(-c2ccco2)c1)c1ccncc1,-9,1.77
C1CCC2(C1)COCC[C@@H]2NCc1nnnn1C1CC1,3,-0.52
CC(C)n1cc(CN(C)C(=O)c2cnc(N3CCCC3)nc2)cn1,-11,1.69
COc1ccc2c(c1)CN(C(=O)Nc1ccc(CCC(C)C)cn1)C2,-5,0.74
O=C(c1cnn(Cc2ccccc2)c1)N1CCn2nc(CO)cc2C1,20,-2.57
O=C(Nc1cccc(Cl)c1)Nc1ccc2[nH]c(=O)oc2c1,8,-1.2
COC1CCN(C[C@H]2CCCCN(C(=O)OC(C)(C)C)C2)CC1,-10,0.99
O=C(c1c[nH]cn1)N1CCC(n2cc(CC3CCCCC3)nn2)CC1,-11,1.46
CN1CC(c2nc(C3CC(=O)N(c4ccccc4)C3)no2)CC1=O (configuration not stated),9,-1.29

Structure (SMILES),% Inhibition [%],Z score
CC(=O)N(CCc1noc(C(C)C)n1)[C@H]1CCN(S(=O)(=O)N2CCOCC2)C1,5,-0.51
Cc1nc2ccc(NC(=O)CN3C(=O)NC(C)(C)C3=O)cc2s1,-9,0.86
c1ccc(COc2ccccc2OCCNC[C@H]2CCCO2)cc1,1,-0.17
CC(C)c1cc(C(=O)Nc2cnn(C)c2)n[nH]1,-4,0.41
COc1ccc(Cc2nc(CCn3cncn3)n(CC(C)(C)O)n2)cc1,-5,0.61
COc1c[nH]c(C(=O)NC[C@H](C)Cn2nc(C)cc2C(F)(F)F)cc1=O,3,-0.54
O=C(Nc1ccc2c(c1)CCC2)N1CCC(O)CC1,0,0.06
Cc1nnc(CC2CCN(C(=O)NCc3ccccc3)CC2)[nH]1,0,0.02
CC(=O)c1ccc(N2CCN(C(=O)CC3CC4CCC3C4)CC2)cc1 (configuration not stated),-3,0.53
Cc1nn(CC(F)F)cc1C(=O)N[C@H]1CCc2[nH]cnc2C1,-4,0.61
O=C1CN(C2CC2)C(=O)N1Cc1ccc(F)cc1Br,1,-0.09
O=C(c1cc2ccccc2[nH]1)N1CC[C@@]2(C1)NC(=O)N(Cc1ccc(Cl)cc1)C2=O,-7,0.91
Cc1cc(O)c([C@H](c2ccccc2)N2CCN(c3ccccc3F)CC2)c(=O)n1Cc1ccccn1,8,-1.14
COCCN1C(=O)N[C@@](Cc2ccc(F)cc2)(C2CCN(Cc3ccc(O)cc3)CC2)C1=O,1,-0.13
Cc1csc(NC(=O)[C@H](C)Nc2ccccc2F)n1,-45,5.32
CC[C@@]1(CNC(=O)N2CC(OCc3nc(C)no3)C2)OCCc2ccccc21,2,-0.42
C[C@@H](Nc1ncnc2c1CN(C)CC2)c1ncccc1F,0,-0.01
CC(C)n1cnnc1CC1CN(C(=O)Nc2cc(F)ccc2F)C1,-1,0.2
CN(CCC(=O)Nc1nccs1)Cc1cc(-c2cccs2)n[nH]1,-13,1.65
O=C(CN1CCC(O)CC1)Nc1cc(C2CC2)nn1-c1ccccc1,-18,1.66
